The source of these data is paper PMC4336329 (PLoS ONE, 2015).

Hit rate of the full screen: of about 310,000 compounds, about 2,200 (0.71%) showed an effect of 50% or more. The effect is printed as a negative number. The list shows a part of the results.

The target of the experiment is human ether-à-go-go-related gene (hERG) potassium channel (human, UniProt Q12809). The experiment in a line: primary screen, population patch clamp on CHO cells stably expressing hERG.
human ether-à-go-go-related gene (hERG) potassium channel, sequence (Q12809 whole entry, looked up): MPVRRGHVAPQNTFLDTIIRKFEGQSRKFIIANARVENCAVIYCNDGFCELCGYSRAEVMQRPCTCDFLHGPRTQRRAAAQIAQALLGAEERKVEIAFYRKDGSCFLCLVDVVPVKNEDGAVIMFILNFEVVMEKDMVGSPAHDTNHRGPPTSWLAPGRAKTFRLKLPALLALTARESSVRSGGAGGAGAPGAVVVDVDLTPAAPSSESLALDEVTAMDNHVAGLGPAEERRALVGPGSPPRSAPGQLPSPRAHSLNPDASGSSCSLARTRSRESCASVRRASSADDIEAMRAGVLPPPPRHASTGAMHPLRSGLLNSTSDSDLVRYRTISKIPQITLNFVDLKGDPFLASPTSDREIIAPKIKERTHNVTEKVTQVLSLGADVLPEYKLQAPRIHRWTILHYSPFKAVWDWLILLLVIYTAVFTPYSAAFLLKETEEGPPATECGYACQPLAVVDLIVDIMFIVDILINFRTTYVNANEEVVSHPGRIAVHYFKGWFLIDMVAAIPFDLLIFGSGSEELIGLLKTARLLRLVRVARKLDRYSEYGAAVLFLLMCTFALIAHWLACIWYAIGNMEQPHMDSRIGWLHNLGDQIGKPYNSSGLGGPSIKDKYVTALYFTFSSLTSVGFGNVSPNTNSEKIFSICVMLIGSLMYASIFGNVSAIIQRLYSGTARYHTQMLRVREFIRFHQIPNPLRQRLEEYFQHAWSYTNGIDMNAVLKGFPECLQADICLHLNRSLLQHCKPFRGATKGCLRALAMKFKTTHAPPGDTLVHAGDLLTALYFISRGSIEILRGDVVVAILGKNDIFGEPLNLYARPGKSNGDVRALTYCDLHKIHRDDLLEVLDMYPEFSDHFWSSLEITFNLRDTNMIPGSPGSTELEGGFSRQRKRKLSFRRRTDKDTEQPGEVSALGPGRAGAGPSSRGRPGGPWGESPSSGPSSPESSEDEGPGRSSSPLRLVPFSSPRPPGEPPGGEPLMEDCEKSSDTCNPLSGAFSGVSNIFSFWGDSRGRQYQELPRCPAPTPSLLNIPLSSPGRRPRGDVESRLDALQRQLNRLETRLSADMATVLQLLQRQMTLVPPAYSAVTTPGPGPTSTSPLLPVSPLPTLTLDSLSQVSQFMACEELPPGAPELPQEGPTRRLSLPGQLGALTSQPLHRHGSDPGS
On to `COC(=O)c1ccc(NC(=O)c2snnc2-c2ccccc2)cc1`, for which the “hERG current change (%, negative = inhibition) at 1uM” value is on record as 10.7%.

Turning to `COc1ccc(COC(=O)c2n[nH]c3ccccc23)cc1F`, the “hERG current change (%, negative = inhibition) at 1uM” value is recorded as -0.258%. For `COc1ccc(CCNC(=S)N2CCC(C(=O)c3ccc(F)cc3)CC2)cc1OC` the value was 3.61%; for `CCOC(=O)c1oc2c(c1C)/C(=N/O)CCC2`, 15.2%. For the molecule `Nc1nonc1-n1nnc(C(=O)N/N=C/c2ccccc2Cl)c1COc1ccc(F)cc1`, the “hERG current change (%, negative = inhibition) at 1uM” value is on record as 6.94%. Regarding `CCN(c1ccccc1)S(=O)(=O)c1ccc(N)c(OC)c1`, the “hERG current change (%, negative = inhibition) at 1uM” value is 4.28%. For the molecule `CCC(Oc1ccc(F)cc1)C(=O)N1CCCCCCC1` (stereo not drawn), the “hERG current change (%, negative = inhibition) at 1uM” value is listed as 3.47%. Consider `COc1ccc(Cn2c(O)c(C=Nc3ccccc3)c3ccccc3c2=O)cc1`, for which the “hERG current change (%, negative = inhibition) at 1uM” value was determined as 6.4%.

With `Oc1c(Br)cc(Br)cc1C=Nc1ccc2[nH]ncc2c1`, the “hERG current change (%, negative = inhibition) at 1uM” value worked out at 8.91%. Consider `Cc1cc(C)n(CCn2nc(C)cc2C)n1`, for which the “hERG current change (%, negative = inhibition) at 1uM” value came to 4.08%. For `CCCOc1ccc(Cn2c(=O)oc3ccc(C)cc32)cc1` the value was 12.7%. For `O=C(CN(Cc1ccco1)C(=O)CNS(=O)(=O)c1ccc(Cl)cc1)NCC1CCCO1` (stereo not drawn) the value was 6.09%; for `CC1CN(CCCCOc2ccc(Cl)c3ccccc23)CC(C)O1.O=C(O)C(=O)O` (stereo not drawn), 21.2%; for `Cc1sc2ncnc(OCC(=O)N3CCN(S(=O)(=O)c4ccccc4)CC3)c2c1C`, 7.8%. The result for `O=C(c1ccc2oc(Cc3ccc(Cl)cc3)nc2c1)N1CC[C@H](O)C1` reads 12.1%; that for `CCOC(=O)C1CCN(C(=O)CCNC(=O)Cn2ccc3ccccc3c2=O)CC1`, 9.34%; that for `C#CCN(CC=C)C(=O)c1ccc2nc(C3CCCCC3)oc2c1`, 7.36%.

With `NC(=O)C1c2ccccc2Oc2ccccc21`, the “hERG current change (%, negative = inhibition) at 1uM” value is 3.54%.

For `Cc1nc2scc(-c3ccccc3)c2c(=O)n1N`, the “hERG current change (%, negative = inhibition) at 1uM” value worked out at 3.11%. The result for `Cc1ccccc1N1CCN(C(=O)c2ccccc2NC(=O)/C=C\C(=O)O)CC1` reads 7.08%; that for `Cc1c(Cl)cccc1NC(=O)CC(Cc1ccccc1)C(=O)O` (stereo not drawn), 8.44%; that for `Cn1c(=O)c2cc(S(=O)(=O)NC(Cc3ccccc3)C(=O)NCC3CCCO3)ccc2n(C)c1=O` (stereo not drawn), 3%.

`Cc1cc(C)c2c(N)c(C(=O)N3CCc4ccccc4C3)sc2n1`: the “hERG current change (%, negative = inhibition) at 1uM” value came out at 12.3%.

Consider `Cc1cc(=O)cc(C)n1-c1ccccc1Br`, for which the “hERG current change (%, negative = inhibition) at 1uM” value is listed as 13.2%. For `COc1cccc(CNC(=O)COC(=O)CN(C)S(=O)(=O)c2ccc(NC(C)=O)cc2)c1` the value was 8.75%. The result for `CC(C)Cn1c(N2CCN(C(=O)c3cccs3)CC2)nc2ccccc21` reads -74.7%; that for `O=C(NNC(=S)Nc1ccc(Br)cc1)c1ccccc1Br`, 2.51%. The result for `O=C(CSc1nnc(CNC(=O)c2cccs2)o1)Nc1cccc(C(F)(F)F)c1` reads 6.27%; that for `COCCn1c(=NC(=O)CSC(C)=O)sc2cc(F)ccc21`, 6.85%; that for `CCC(=O)Nc1ccc(NC(=O)c2cc3ccccc3o2)c(OC)c1`, -0.329%.

In the case of `COc1ccc(/C=C/C(=O)C2CC2)cc1Cn1nc(C)c([N+](=O)[O-])c1C`, the “hERG current change (%, negative = inhibition) at 1uM” value is recorded as -9.32%. The result for `Cc1nnc(SCC(=O)N2CCN(c3ccccc3)CC2)n1-c1ccccc1` reads 4.55%; that for `O=C1C=CN(C(=O)Oc2ccccc2)CC1`, 3.33%; that for `Cc1ccc(O)c(NC(=O)Cc2ccc3ccccc3c2)c1`, 11.6%. Consider `CC(=O)N1C(=O)NC(c2ccccc2)=C([N+](=O)[O-])C1c1ccccc1` (stereo not drawn), for which the “hERG current change (%, negative = inhibition) at 1uM” value is on record as 7.06%. Turning to `CCS(=O)(=O)c1nc(S(=O)(=O)c2ccc(C)cc2)c(N2CCN(CCO)CC2)s1`, the “hERG current change (%, negative = inhibition) at 1uM” value was 16.9%.

Take `CCOC(=O)c1ccc2nc(NC(NC(C)=O)(C(=O)OC)C(F)(F)F)sc2c1` (stereo not drawn): the “hERG current change (%, negative = inhibition) at 1uM” value came out at 14%. `CC(C)c1ccc(N(C(=O)c2csnn2)C(C(=O)NC2CCCC2)c2ccncc2)cc1` (stereo not drawn): the “hERG current change (%, negative = inhibition) at 1uM” value is 4.61%. The result for `O=C(O)c1ccc([N+](=O)[O-])c(CS(=O)(=O)c2ccc(Cl)cc2)c1` reads 4.34%.

As for `COc1ccc(C2(C)NC(=O)N(CC(=O)Nc3ccc(S(=O)(=O)N4CCCC4)cc3)C2=O)cc1` (stereo not drawn), the “hERG current change (%, negative = inhibition) at 1uM” value is listed as 0.414%. For `COc1ccc(NC(=S)N2CCN(C(=O)C3CCCO3)CC2)c(OC)c1` (stereo not drawn) the value was 12.9%; for `COc1ccc(-c2c(C)n([O-])c3c([n+]2=O)CCCC3)c(OC)c1`, 11.4%; for `O=C(O)c1ccc(Cl)c(S(=O)(=O)NCC2CCCO2)c1` (stereo not drawn), 14.8%. The result for `CCCCCn1nc(-c2ccccc2)c2nc3ccccc3nc21` reads 13.8%; that for `O=C1OCCC1Sc1nnc(-c2ccc3c(c2)OCO3)n1-c1ccccc1` (stereo not drawn), 4.75%. For `CCN(C(=O)CCCCC(=O)N(CC)c1ccccc1)c1ccccc1` the value was 11.1%. As for `COc1ccc(OCCC(=O)NCC23CC4CC(CC(C4)C2)C3)cc1`, the “hERG current change (%, negative = inhibition) at 1uM” value came to 7.39%.

As for `COc1ccccc1N=C1SCC(=O)N1c1ccccc1OC`, the “hERG current change (%, negative = inhibition) at 1uM” value was found to be 4.93%. Take `COc1cc(/C=N/NC(=O)C(=O)/C=C2\NC3(CCCC3)Cc3ccccc32)ccc1O`: the “hERG current change (%, negative = inhibition) at 1uM” value is 15.5%.

As for `CC(CCc1ccccc1)NC(=O)COC(=O)c1ccc([N+](=O)[O-])cc1` (stereo not drawn), the “hERG current change (%, negative = inhibition) at 1uM” value was found to be 5.37%.

In the case of `Nc1nc(CSc2ccc(Cl)cc2)nc(N2CCCCC2)n1`, the “hERG current change (%, negative = inhibition) at 1uM” value is recorded as -0.564%. For `CCC(C)NC(=O)CSc1nc2ccccc2c(=O)n1CCCN1CCCCC1` (stereo not drawn) the value was 14%; for `COCCCNC(=O)Cn1cc(C(=O)c2cccs2)c2ccccc21`, 7.16%; for `Cc1ccc(S(=O)(=O)N(C)C)cc1NC(=O)Nc1ccccc1`, 13.7%. For `CC(C)Cc1ccc(S(=O)(=O)N2CCN(C(=O)c3ccco3)CC2)cc1` the value was 11.4%. For `O=C(NNc1ccc(Cl)cc1)c1c(F)cccc1Cl` the value was 14.5%; for `CCOC(=O)CSc1nnc(CNc2ccccc2Cl)n1-c1ccccc1`, 7.23%; for `CCOC(=O)c1c(NC(=O)/C=C/C(=O)O)sc(C)c1-c1ccc(F)cc1`, 19.5%. Consider `COc1ccc(CCC(=O)N2CCN(S(=O)(=O)c3ccc(OC(F)(F)F)cc3)CC2)cc1`, for which the “hERG current change (%, negative = inhibition) at 1uM” value was -3.48%. For `CCNC(=O)NC(=O)C(C)OC(=O)c1ccc(-n2nc(SC)sc2=S)cc1` (stereo not drawn) the value was 6.17%; for `CC(=O)Nc1ccc(NC(=O)c2ccc(CN3CCc4ccccc4C3)cc2)cc1`, 7.98%.

With `CCOc1ccc(C(=O)NC(=S)Nc2ccc(NC(=O)c3ccco3)c(C)c2)cc1[N+](=O)[O-]`, the “hERG current change (%, negative = inhibition) at 1uM” value is 17.5%.

In the case of `O=C1C=C(c2ccc3[nH]ccc3c2)C[C@@H](c2ccc(F)cc2)C1`, the “hERG current change (%, negative = inhibition) at 1uM” value is on record as 5.61%. For `CC(=O)Nc1nnc(S(=O)(=O)N2CCN(c3ccc([N+](=O)[O-])cc3Cl)CC2)s1`, the “hERG current change (%, negative = inhibition) at 1uM” value is -4.58%. For `O=C(CSc1nnc(-c2cccnc2)n1Cc1ccco1)Nc1nc(-c2ccc(F)cc2)cs1` the value was -33.6%; for `Cc1nc2ccccc2c(=O)n1NC(=O)c1c(F)cccc1F`, -1.93%. For `Cc1ccc(C(=O)NC2CCS(=O)(=O)C2)cc1S(=O)(=O)N1CCCC1` (stereo not drawn) the value was 2.16%. On to `CN1CCN(/C=N/c2sc3c(c2C#N)CCCCC3)CC1`, for which the “hERG current change (%, negative = inhibition) at 1uM” value was determined as 10.1%. The result for `Cc1ccc(-n2sc3ccccc3c2=O)cc1S(=O)(=O)N1CCCCC1` reads 14%; that for `COc1ccc(Cl)cc1NC(=O)C12CCC(C)(C(=O)O1)C2(C)C` (stereo not drawn), 1.15%.

`Cc1ccc(Nc2ccc([N+](=O)[O-])ccc2=O)cc1`: the “hERG current change (%, negative = inhibition) at 1uM” value came out at 10.8%. For `CCC(C(=O)N1CCN(S(C)(=O)=O)CC1)c1ccccc1` (stereo not drawn) the value was -6.56%. For `Cc1ccc(NC(=O)N2CCC(C(=O)c3ccc(F)cc3)CC2)cc1`, the “hERG current change (%, negative = inhibition) at 1uM” value was determined as 6.24%.

Regarding `CCOc1ccc(S(=O)(=O)Nc2cccc(C(=O)NCCCN3CCCC3=O)c2)cc1`, the “hERG current change (%, negative = inhibition) at 1uM” value is recorded as 12.9%.

In the case of `CN(CC(=O)Nc1ccc(C(N)=O)cc1)CC(=O)Nc1ccccc1Cl`, the “hERG current change (%, negative = inhibition) at 1uM” value is recorded as 10.4%. The result for `COc1cccc(-c2c(-c3cc(OC)cc(OC)c3)n(C)c3ccc(-c4ccc(OC)nc4)cc23)c1` reads 12.2%; that for `CC(C)N(Cc1cc2ccccc2[nH]c1=O)C(=O)C(C)(C)C`, 5.63%; that for `COC(=O)CN1C(=S)N(c2ccc(F)cc2)C(=O)C1CC(=O)Nc1ccc(F)cc1` (stereo not drawn), 1.71%. The result for `C=C(C)Cn1c(NCCC)nc2c1c(=O)n(C)c(=O)n2C` reads 6.7%; that for `COc1ccc(Cl)cc1NC(=S)Nc1cccnc1`, 6.72%; that for `O=C(NC(=S)N(Cc1ccccc1)Cc1ccccc1)c1ccccc1F`, 14.8%.

As for `COc1cccc(C2C3=C(CC(C)(C)CC3=O)Nc3cc(OC)c(OC)cc32)c1` (stereo not drawn), the “hERG current change (%, negative = inhibition) at 1uM” value is given as 12.4%.

Consider `CCn1nc(C)c(NC(=O)CCCSc2nc(-c3ccco3)cc(C(F)(F)F)n2)c1C`, for which the “hERG current change (%, negative = inhibition) at 1uM” value is on record as 10.1%.

Consider `C=CCNC(=O)c1n[nH]c2c1CC(C(C)(C)CC)CC2` (stereo not drawn), for which the “hERG current change (%, negative = inhibition) at 1uM” value is recorded as 16.2%.

In the case of `COCCCn1c(=O)c2ccccc2n(CC(=O)Nc2ccc3c(c2)OCCO3)c1=O`, the “hERG current change (%, negative = inhibition) at 1uM” value was 15.6%. Turning to `CC(=O)N1CCC(C(=O)Nc2ccc(S(=O)(=O)N3CCC(C)CC3)cc2)CC1`, the “hERG current change (%, negative = inhibition) at 1uM” value was -1.37%. As for `Cc1nn(CC2CC2)c(=O)n1N(C)c1ncc(C(F)(F)F)cc1Cl`, the “hERG current change (%, negative = inhibition) at 1uM” value came out at 5.29%.
